According to publication PMC6451091:
The list shows a part of the results. For part of these data: At the low end of the ranking the order means little. For part of these data: Measured with an extract: partners may take part in the binding.

Each sequence was assayed against PU.1 (IVT) (UniProt P17947) (assay: protein-binding microarray (PBM)). Details: 20 mM HEPES pH 7.9, 100 mM NaCl, 1 mM DTT, 0.2 mg/mL BSA, 0.02% Triton X-100, 2% milk, 0.4 mg/mL salmon testes DNA; 1 h; temperature not stated; high values mean tight binding; double strand, one strand shown; sequences stand for … in GCCTAGCAC…GTGCTAGGTCTTGATTCGCTTGACGCTGCTG.

Sequence | binding signal [z-score]
CTGGCAGAGAACTGAAACTC | -0.215
CAGTGAGGGAAGTGAAACTA | 2.37
CTGGCGGGGAACTGAAACTC | -0.144
AAGAAGAGGAAGAGAAACTA | 2.65
TGAGAGGAGAAATGAAACCT | 0.39
ATTAAACGGAAGTGAAACTT | 4.33
CTGCCGGGGAAGTGAAAGCA | 1.25
CTGGCAGGGAACTCAAACTC | 0.554
TGAAACAGGAAGTCAAACCA | 5.83
TGAAACAGGAAGTGAAACCT | 6.74
AGAAACAGGAAGAGAAACTA | 3.84
TAAAGGAGGAACTGCAACCA | 3.35
TAAAAGAGGAACAGAAACTC | 5.06
TGAGAGGACAAGTGAAACCT | -0.169
TTTAAAGGGAAATGAAAGTC | 1.44
TTGCAGAGGAAGTGAAACTA | 3.03
TGAGAGGAAAAGTGAAACCT | -0.416
CAGCCAGGGAAGTGAAAGCA | 0.79
TGAGAGGAGACGTGAAACCT | -0.741
GACGCTGGGAAGTGAAACTA | 1.07

Sequence | binding signal [z-score]
TGAAACAGGTAGTGAAACCA | 0.968
TGATACAGGAAGTGAAACCA | 4.18
CTGCCACGGAAGTGAAAGCA | 0.972
GAAAAGAGGAACCGAAACTT | 6.08
TAAAGGCGGAACTGAAACCA | 3.31
CAAAGTGGGAACTGAAACTT | 2.37
TGGCAGAGGCAGTGAAACTA | -0.453
CTGCCAGGGAAGTCAAAGCA | 0.647
TAAAGGAGGAACTGAAAGCA | 3.55
TAGGAGAGGAAGTGAAAGCC | 4
AGGAAGAGGAAGAGAAACTA | 2.47
GATGAGAGGAACTGAAAGCT | 2.23
TGGGAGGAGAAGTGAAACCT | 1.37
TAAAAGAGGAACAGAAACTA | 4.97
TGAGAGGAGAAGTGAAAGCT | 1.16
AGAAAGAGGAAGAGAAACTG | 5.02
TAAAGAAGGAACTGAAACCA | 2.41
GTAATGGGGAACAGAAACCG | 1.69
CCGCCAGGGAAGTGAAAGCA | 0.995
TAAAGGAGGAACTGTAACCA | 3.12

What follows are sequences tested against T1, FLI1 (endogenous, THP-1 nuclear extract) (UniProt Q01543) (assay: nuclear extract protein-binding microarray (nextPBM)). Details: 20 mM HEPES pH 7.9, 100 mM NaCl, 1 mM DTT, 0.2 mg/mL BSA, 0.02% Triton X-100, 2% milk, 0.4 mg/mL salmon testes DNA; 1 h; temperature not stated; high values mean tight binding; double strand, one strand shown; sequences stand for … in GCCTAGCAC…GTGCTAGGTCTTGATTCGCTTGACGCTGCTG.
T1 sequence: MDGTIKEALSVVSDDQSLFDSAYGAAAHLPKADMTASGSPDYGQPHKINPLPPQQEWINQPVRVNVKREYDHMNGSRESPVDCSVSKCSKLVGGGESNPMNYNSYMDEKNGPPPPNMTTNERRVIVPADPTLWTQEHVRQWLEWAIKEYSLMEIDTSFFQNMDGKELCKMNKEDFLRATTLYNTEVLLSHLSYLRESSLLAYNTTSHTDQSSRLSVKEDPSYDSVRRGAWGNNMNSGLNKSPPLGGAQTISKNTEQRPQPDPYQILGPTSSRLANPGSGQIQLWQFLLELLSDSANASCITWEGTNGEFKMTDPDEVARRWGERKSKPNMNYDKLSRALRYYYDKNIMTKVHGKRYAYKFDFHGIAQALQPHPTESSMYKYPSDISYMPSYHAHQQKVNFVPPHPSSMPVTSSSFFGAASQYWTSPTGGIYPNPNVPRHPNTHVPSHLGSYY

Sequence | binding signal [z-score]
CTGGCAGAGAACTGAAACTC | -0.512
CAGTGAGGGAAGTGAAACTA | 2.1
CTGGCGGGGAACTGAAACTC | -0.112
AAGAAGAGGAAGAGAAACTA | 1.57
TGAGAGGAGAAATGAAACCT | 0.259
ATTAAACGGAAGTGAAACTT | 4.76
CTGCCGGGGAAGTGAAAGCA | 0.913
CTGGCAGGGAACTCAAACTC | 0.601
TGAAACAGGAAGTCAAACCA | 4.83
TGAAACAGGAAGTGAAACCT | 5.85
AGAAACAGGAAGAGAAACTA | 3.1
TAAAGGAGGAACTGCAACCA | 0.996
TAAAAGAGGAACAGAAACTC | 1.94
TGAGAGGACAAGTGAAACCT | -0.0377
TTTAAAGGGAAATGAAAGTC | 1.36
TTGCAGAGGAAGTGAAACTA | 3.48
TGAGAGGAAAAGTGAAACCT | 0.841
CAGCCAGGGAAGTGAAAGCA | 0.812
TGAGAGGAGACGTGAAACCT | 0.0971
GACGCTGGGAAGTGAAACTA | 1.29

Sequence | binding signal [z-score]
TGAAACAGGTAGTGAAACCA | 1.09
TGATACAGGAAGTGAAACCA | 4.99
CTGCCACGGAAGTGAAAGCA | 2.64
GAAAAGAGGAACCGAAACTT | 3.82
TAAAGGCGGAACTGAAACCA | 2.51
CAAAGTGGGAACTGAAACTT | 1.1
TGGCAGAGGCAGTGAAACTA | -0.372
CTGCCAGGGAAGTCAAAGCA | 0.624
TAAAGGAGGAACTGAAAGCA | 1.32
TAGGAGAGGAAGTGAAAGCC | 2.95
AGGAAGAGGAAGAGAAACTA | 2.47
GATGAGAGGAACTGAAAGCT | 0.792
TGGGAGGAGAAGTGAAACCT | 0.356
TAAAAGAGGAACAGAAACTA | 2.58
TGAGAGGAGAAGTGAAAGCT | 0.2
AGAAAGAGGAAGAGAAACTG | 2.64
TAAAGAAGGAACTGAAACCA | 1.56
GTAATGGGGAACAGAAACCG | 1.17
CCGCCAGGGAAGTGAAAGCA | 0.423
TAAAGGAGGAACTGTAACCA | 0.886

Each sequence was assayed on PU.1 (endogenous, THP-1 nuclear extract) + IRF8 (endogenous, THP-1 nuclear extract) in the same assay as above. Details: 20 mM HEPES pH 7.9, 100 mM NaCl, 1 mM DTT, 0.2 mg/mL BSA, 0.02% Triton X-100, 2% milk, 0.4 mg/mL salmon testes DNA; 1 h; temperature not stated; high values mean tight binding; double strand, one strand shown; sequences stand for … in GCCTAGCAC…GTGCTAGGTCTTGATTCGCTTGACGCTGCTG.

Sequence | binding signal [z-score]
CTGGCAGAGAACTGAAACTC | 10.3
CAGTGAGGGAAGTGAAACTA | 61.7
CTGGCGGGGAACTGAAACTC | 8.88
AAGAAGAGGAAGAGAAACTA | 8.55
TGAGAGGAGAAATGAAACCT | 9.4
ATTAAACGGAAGTGAAACTT | 58.7
CTGCCGGGGAAGTGAAAGCA | 4.6
CTGGCAGGGAACTCAAACTC | -0.316
TGAAACAGGAAGTCAAACCA | 0.359
TGAAACAGGAAGTGAAACCT | 65.8
AGAAACAGGAAGAGAAACTA | 11.6
TAAAGGAGGAACTGCAACCA | 0.864
TAAAAGAGGAACAGAAACTC | 33.1
TGAGAGGACAAGTGAAACCT | 10.5
TTTAAAGGGAAATGAAAGTC | 3.25
TTGCAGAGGAAGTGAAACTA | 65.1
TGAGAGGAAAAGTGAAACCT | 25.8
CAGCCAGGGAAGTGAAAGCA | 5.7
TGAGAGGAGACGTGAAACCT | 2.43
GACGCTGGGAAGTGAAACTA | 41.5

Sequence | binding signal [z-score]
TGAAACAGGTAGTGAAACCA | 24.7
TGATACAGGAAGTGAAACCA | 67.2
CTGCCACGGAAGTGAAAGCA | 4.82
GAAAAGAGGAACCGAAACTT | 82.1
TAAAGGCGGAACTGAAACCA | 34.5
CAAAGTGGGAACTGAAACTT | 16.1
TGGCAGAGGCAGTGAAACTA | 12.2
CTGCCAGGGAAGTCAAAGCA | -0.272
TAAAGGAGGAACTGAAAGCA | 6.55
TAGGAGAGGAAGTGAAAGCC | 5.22
AGGAAGAGGAAGAGAAACTA | 7.37
GATGAGAGGAACTGAAAGCT | 1.77
TGGGAGGAGAAGTGAAACCT | 21.9
TAAAAGAGGAACAGAAACTA | 44.9
TGAGAGGAGAAGTGAAAGCT | 2.08
AGAAAGAGGAAGAGAAACTG | 12.6
TAAAGAAGGAACTGAAACCA | 30.3
GTAATGGGGAACAGAAACCG | 7.73
CCGCCAGGGAAGTGAAAGCA | 3.4
TAAAGGAGGAACTGTAACCA | -0.391
